# This is one part of the list.
# B1: Cohesin-hMARCO (Homo sapiens) (protein)
# chain: LDDLDAVRIKVDTVNAKPGDTVRIPVRFSGIPSKGIANCDFVYSYDPNVLEIIEIEPGDIIVDPNPDKSFDTAVYPDRKIIVFLFAEDSGTGAYAITKDGVFATIVAKVKEGAPNGLSVIKFVEVGGFANNDLVEQKTQFFDGGANVGDTTEPATPTTPVTTPTTTDDLDAASVRIVGSSNRGRAEVYYSGTWGTICDDEWQNSDAIVFCRMLGYSKGRALYKVGAGTGQIWLDNVQCRGTESTLWSCTKNSWGHHDCSHEEDAGVECSVHHHHHH
# Tests used:
# Test in all cases: glycan array binding signal (z-score within array); higher = stronger binding
# Details in all cases: glycan notation: IUPAC condensed, linker removed
# [1] = biological target: Fuc(a1-2)Gal(b1-4)[Fuc(a1-3)]GlcNAc(b1-2)Man(a1-3)[Fuc(a1-2)Gal(b1-4)[Fuc(a1-3)]GlcNAc(b1-2)Man(a1-6)]Man(b1-4)GlcNAc(b1-4)[Fuc(a1-6)]GlcNAc
# In short: (§1)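 Negative Z-scores can be read as non-binding. The Z-score is calculated within each array and then averaged across arrays of one protein sequence at different concentrations or buffers and across linkers. Arrays, 3228 in all, were curated from the Consortium for Functional Glycomics database and kept only where the protein sequence was available.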
# [2] = biological target: Fuc(a1-2)Gal(b1-4)[Fuc(a1-3)]GlcNAc(b1-2)[Fuc(a1-2)Gal(b1-4)[Fuc(a1-3)]GlcNAc(b1-4)]Man(a1-3)[Fuc(a1-2)Gal(b1-4)[Fuc(a1-3)]GlcNAc(b1-2)Man(a1-6)]Man(b1-4)GlcNAc(b1-4)GlcNAc
# In short: as §1
# [3] = biological target: Fuc(a1-2)Gal(b1-4)[Fuc(a1-3)]GlcNAc(b1-3)Gal(b1-4)[Fuc(a1-3)]GlcNAc
# In short: as §1
# [4] = biological target: Fuc(a1-2)Gal(b1-4)[Fuc(a1-3)]GlcNAc(b1-3)Gal(b1-4)[Fuc(a1-3)]GlcNAc(b1-3)Gal(b1-4)[Fuc(a1-3)]GlcNAc
# In short: as §1
# [5] = biological target: Fuc(a1-2)Gal(b1-4)[Fuc(a1-3)]GlcNAc(b1-3)GalNAc
# In short: as §1
# [6] = biological target: Fuc(a1-2)Gal(b1-4)[Fuc(a1-3)]GlcNAc(b1-3)[Neu5Ac(a2-6)Gal(b1-4)GlcNAc(b1-6)]Gal(b1-4)Glc
# In short: as §1
# [7] = biological target: Fuc(a1-2)Gal3S(b1-4)GlcNAc
# In short: as §1
# [8] = biological target: Fuc(a1-2)Gal6S(b1-3)GlcNAc
# In short: as §1
# [9] = biological target: Fuc(a1-2)Gal6S(b1-3)GlcNAc6S
# In short: as §1
# Fuc(a1-2)Gal6S(b1-4)Glc = biological target: Fuc(a1-2)Gal6S(b1-4)Glc
# In short: as §1
# [10] = biological target: Fuc(a1-2)Gal6S(b1-4)Glc6S
# In short: as §1
# Fuc(a1-2)[Gal(a1-3)]Gal = biological target: Fuc(a1-2)[Gal(a1-3)]Gal
# In short: as §1
# [11] = biological target: Fuc(a1-2)[Gal(a1-3)]Gal(b1-3)GalNAc
# In short: as §1
# [12] = biological target: Fuc(a1-2)[Gal(a1-3)]Gal(b1-3)GalNAc(b1-3)Gal(a1-4)Gal(b1-4)Glc
# In short: as §1
# [13] = biological target: Fuc(a1-2)[Gal(a1-3)]Gal(b1-3)GlcNAc
# In short: as §1
# [14] = biological target: Fuc(a1-2)[Gal(a1-3)]Gal(b1-3)GlcNAc(b1-2)Man(a1-3)[Fuc(a1-2)[Gal(a1-3)]Gal(b1-3)GlcNAc(b1-2)Man(a1-6)]Man(b1-4)GlcNAc(b1-4)GlcNAc
# In short: as §1
# [15] = biological target: Fuc(a1-2)[Gal(a1-3)]Gal(b1-3)GlcNAc(b1-2)Man(a1-3)[Fuc(a1-2)[Gal(a1-3)]Gal(b1-3)GlcNAc(b1-2)Man(a1-6)]Man(b1-4)GlcNAc(b1-4)[Fuc(a1-6)]GlcNAc
# In short: as §1
# [16] = biological target: Fuc(a1-2)[Gal(a1-3)]Gal(b1-3)GlcNAc(b1-3)GalNAc
# In short: as §1
# [17] = biological target: Fuc(a1-2)[Gal(a1-3)]Gal(b1-3)GlcNAc(b1-6)GalNAc
# In short: as §1
# [18] = biological target: Fuc(a1-2)[Gal(a1-3)]Gal(b1-4)Glc
# In short: as §1
# [19] = biological target: Fuc(a1-2)[Gal(a1-3)]Gal(b1-4)GlcNAc
# In short: as §1
# [20] = biological target: Fuc(a1-2)[Gal(a1-3)]Gal(b1-4)GlcNAc(b1-2)Man
# In short: as §1
# [21] = biological target: Fuc(a1-2)[Gal(a1-3)]Gal(b1-4)GlcNAc(b1-2)Man(a1-3)[Fuc(a1-2)[Gal(a1-3)]Gal(b1-4)GlcNAc(b1-2)Man(a1-6)]Man(b1-4)GlcNAc(b1-4)GlcNAc
# In short: as §1
# [22] = biological target: Fuc(a1-2)[Gal(a1-3)]Gal(b1-4)GlcNAc(b1-2)Man(a1-3)[Fuc(a1-2)[Gal(a1-3)]Gal(b1-4)GlcNAc(b1-2)Man(a1-6)]Man(b1-4)GlcNAc(b1-4)[Fuc(a1-6)]GlcNAc
# In short: as §1
# [23] = biological target: Fuc(a1-2)[Gal(a1-3)]Gal(b1-4)GlcNAc(b1-3)GalNAc
# In short: as §1
# [24] = biological target: Fuc(a1-2)[Gal(a1-3)]Gal(b1-4)GlcNAc(b1-3)[Fuc(a1-2)[Gal(a1-3)]Gal(b1-4)GlcNAc(b1-6)]GalNAc
# In short: as §1
# [25] = biological target: Fuc(a1-2)[Gal(a1-3)]Gal(b1-4)GlcNAc(b1-6)GalNAc
# In short: as §1
# [26] = biological target: Fuc(a1-2)[Gal(a1-3)]Gal(b1-4)[Fuc(a1-3)]Glc
# In short: as §1
# [27] = biological target: Fuc(a1-2)[Gal(a1-3)]Gal(b1-4)[Fuc(a1-3)]GlcNAc
# In short: as §1
# [28] = biological target: Fuc(a1-2)[Gal(a1-3)]Gal(b1-4)[Fuc(a1-3)]GlcNAc(b1-3)GalNAc
# In short: as §1
# [29] = biological target: Fuc(a1-2)[Gal(a1-4)]Gal(b1-4)GlcNAc
# In short: as §1
# [30] = biological target: Fuc(a1-2)[GalNAc(a1-3)]Gal
# In short: as §1
# [31] = biological target: Fuc(a1-2)[GalNAc(a1-3)]Gal(b1-3)GalNAc(a1-3)[Fuc(a1-2)]Gal(b1-4)GlcNAc
# In short: as §1
# [32] = biological target: Fuc(a1-2)[GalNAc(a1-3)]Gal(b1-3)GalNAc(b1-3)Gal(a1-4)Gal(b1-4)Glc
# In short: as §1
# [33] = biological target: Fuc(a1-2)[GalNAc(a1-3)]Gal(b1-3)GlcNAc
# In short: as §1
# [34] = biological target: Fuc(a1-2)[GalNAc(a1-3)]Gal(b1-3)GlcNAc(b1-2)Man(a1-3)[Fuc(a1-2)[GalNAc(a1-3)]Gal(b1-3)GlcNAc(b1-2)Man(a1-6)]Man(b1-4)GlcNAc(b1-4)GlcNAc
# In short: as §1
# [35] = biological target: Fuc(a1-2)[GalNAc(a1-3)]Gal(b1-3)GlcNAc(b1-2)Man(a1-3)[Fuc(a1-2)[GalNAc(a1-3)]Gal(b1-3)GlcNAc(b1-2)Man(a1-6)]Man(b1-4)GlcNAc(b1-4)[Fuc(a1-6)]GlcNAc
# In short: as §1
# [36] = biological target: Fuc(a1-2)[GalNAc(a1-3)]Gal(b1-3)GlcNAc(b1-3)GalNAc
# In short: as §1
binder,measurement,setting,value
B1,glycan array binding signal (z-score),[1],-0.305
same,glycan array binding signal (z-score),[2],-0.399
same,glycan array binding signal (z-score),[3],-0.45
same,glycan array binding signal (z-score),[4],-0.444
same,glycan array binding signal (z-score),[5],0.242
same,glycan array binding signal (z-score),[6],-0.448
same,glycan array binding signal (z-score),[7],-0.259
same,glycan array binding signal (z-score),[8],-0.258
same,glycan array binding signal (z-score),[9],0.012
same,glycan array binding signal (z-score),Fuc(a1-2)Gal6S(b1-4)Glc,-0.237
same,glycan array binding signal (z-score),[10],-0.072
same,glycan array binding signal (z-score),Fuc(a1-2)[Gal(a1-3)]Gal,-0.225
same,glycan array binding signal (z-score),[11],-0.378
same,glycan array binding signal (z-score),[12],-0.528
same,glycan array binding signal (z-score),[13],2.72
same,glycan array binding signal (z-score),[14],-0.576
same,glycan array binding signal (z-score),[15],-0.466
same,glycan array binding signal (z-score),[16],-0.028
same,glycan array binding signal (z-score),[17],0.474
same,glycan array binding signal (z-score),[18],0.265
same,glycan array binding signal (z-score),[19],0.089
same,glycan array binding signal (z-score),[20],-0.167
same,glycan array binding signal (z-score),[21],-0.358
same,glycan array binding signal (z-score),[22],0.522
same,glycan array binding signal (z-score),[23],-0.45
same,glycan array binding signal (z-score),[24],-0.382
same,glycan array binding signal (z-score),[25],-0.528
same,glycan array binding signal (z-score),[26],-0.198
same,glycan array binding signal (z-score),[27],0.015
same,glycan array binding signal (z-score),[28],-0.472
same,glycan array binding signal (z-score),[29],-0.286
same,glycan array binding signal (z-score),[30],0.232
same,glycan array binding signal (z-score),[31],-0.358
same,glycan array binding signal (z-score),[32],-0.549
same,glycan array binding signal (z-score),[33],-0.317
same,glycan array binding signal (z-score),[34],-0.18
same,glycan array binding signal (z-score),[35],0.063
same,glycan array binding signal (z-score),[36],-0.468

# Reference: the supplement of paper PMC8728848
